Experimental data taken from the RNAGym collection of RNA variant scans (doi:10.1073/pnas.2313332121).
Variants at the floor of the assay are shown more often than the library holds them.

B1: TPR 5TU (parent)
chain: GGAUCUUCUCGAUCUAACAAAAAAGACAAAUCUGCCACAAAGCUUGAGAGCAUCUUCGGAUGCAGAGGCGGCAGCCUUCGGUGGCGCGAUAGCGCCAACGUUCUCAACUAUGACACGCAAAACGCGUGCUCCGUUGAAUGGAGUUUAUCAUG

Variants of: B1
Experiment: polymerase ribozyme fitness, log enrichment relative to wild type (log ratio); higher = more active; in vitro selection for triplet polymerase activity
Summary of the method: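 Input and output libraries were sequenced on Illumina after a single in vitro selection round, run in triplicate on PCR-built, transcribed mutant libraries of each subunit of a heterodimeric triplet polymerase ribozyme. Selection annealed libraries to a biotinylated primer, the partner subunit and triplets, incubated them frozen at −7 °C, then gel-excised extended constructs for streptavidin-bead capture and RT-PCR. Genotypes with ≥10 input reads and ≥1 read per output were kept. Fitness is the logarithm, taken in base 2, of genotype enrichment divided by wild-type enrichment, using inverse-variance-weighted replicate averages.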

Variant | polymerase ribozyme fitness (log ratio)
C69G C96U C103A | -3.44
C69G C99A A115G | -3.71
C69G G71A A91U C125G | ≤ -4.2
C69G G83C | -4.05
C69G G86C C103U | ≤ -4.2
C69G U78A G94U A97C C99U | ≤ -4.2
C69G U101G G133U | -3.95
C69U A73C C79U G80C C87G A89U G141A | ≤ -4.2
C69U A73U | -2.64
C69U A89G C103G | ≤ -4.2
C69U A98U | -1.15
C69U C72G G80C C85G A107G A110C U139G C149U | ≤ -4.2
C69U C72U | -1.99
C69U C76A C93U | ≤ -4.2
C69U C76A G86C U146G | ≤ -4.2
C69U C76G U130A | ≤ -4.2
C69U C87A | ≤ -4.2
C69U C87U A91C U135A | ≤ -4.2
C69U C93A A107G | ≤ -4.2
C69U C96G C125U | -1.78
C69U C116U U135A G136U | -4.18
C69U C132G G140U | -1
C69U G70A C99A G100A | ≤ -4.2
C69U G71U G80C U82G C93G G117A | ≤ -4.2

Variant | polymerase ribozyme fitness (log ratio)
C69U G80C | ≤ -4.2
C69U G81U | -2.07
C69U G83A | -3.04
C69U G84U G133C | -3.62
C69U G86U C114U G141U | ≤ -4.2
C69U G88U C93U C123G | ≤ -4.2
C69U G94A A122G U135A U146G | -2.95
C69U G94C | -1.65
C69U G128C U130C C132G U135A A138C | ≤ -4.2
C69U G136U U146C | -2.94
C69U U77A C87G U109C G124U | ≤ -4.2
C69U U77G G92C C99U C103U U111A | ≤ -4.2
C69U U78A A97U G143C | ≤ -4.2
G70A A73G C79U G88C G133C A137C | ≤ -4.2
G70A A91U A122G G152U | ≤ -4.2
G70A A91U U111G G136C | ≤ -4.2
G70A A110G A142G | -4.14
G70A C79A C87G C99U U111C | ≤ -4.2
G70A C85A G88A G100A C125A U139C | ≤ -4.2
G70A C85G | ≤ -4.2
G70A C85U | -3.46
G70A C85U A113U G117A G141A U145A A150C G152A | ≤ -4.2
G70A C93A C103G | ≤ -4.2
G70A C96U A121G G128U U130C C131G U144G | ≤ -4.2

Variant | polymerase ribozyme fitness (log ratio)
G70A G80U C125A G140C | ≤ -4.2
G70A G81A A122U | ≤ -4.2
G70A G86C | ≤ -4.2
G70A G88C U146A | ≤ -4.2
G70A G94A U135C A150C | ≤ -4.2
G70A U78C G88U U104G A113G G128U U135A | ≤ -4.2
G70A U90A C125A U135C | ≤ -4.2
G70A U101A | ≤ -4.2
G70C A73C U78A G86U | ≤ -4.2
G70C A89U C96U U102G A107U | ≤ -4.2
G70C A97G | -3.97
G70C A115G | ≤ -4.2
G70C A142U U144A U148A | ≤ -4.2
G70C C85A G117C C132U | ≤ -4.2
G70C C87A A98U C99U A107U A122G G133U | ≤ -4.2
G70C C87G C96G A107G U146G | ≤ -4.2
G70C G80A A91U U104C A120U | ≤ -4.2
G70C G81C C95U C114G U134G | ≤ -4.2
G70C G83A A122C A150U | ≤ -4.2
G70C G84U A107U | ≤ -4.2
G70C G92A A98C | ≤ -4.2
G70C G136C | ≤ -4.2
G70C U102G A115C A142C | ≤ -4.2
G70U A97G G143A U145G A147U | ≤ -4.2

Variant | polymerase ribozyme fitness (log ratio)
G70U C87A A115U C116A U151A | ≤ -4.2
G70U C93G A106G | ≤ -4.2
G70U C96G C103G | ≤ -4.2
G70U C114G A119C | ≤ -4.2
G70U G83C C95G A97U C125G | ≤ -4.2
G70U G92C U151C | ≤ -4.2
G70U G92U A98G A147C | ≤ -4.2
G70U G94C C118G A120G U127A G133U G143A | ≤ -4.2
G70U G136A | -1.86
G70U U78A C87G | ≤ -4.2
G70U U82G G86U U104G U109C A122U G133U U139C G152C | ≤ -4.2
G71A A89G | ≤ -4.2
G71A A91C | ≤ -4.2
G71A A107U G133C | ≤ -4.2
G71A C76G U82A G83C C131A | ≤ -4.2
G71A C85G A150C | ≤ -4.2
G71A C85G G92U G143A | ≤ -4.2
G71A C85U C103G G124A U145G A150G | ≤ -4.2
G71A C87G A115G C118U G133U | ≤ -4.2
G71A C87U A91U C99U | ≤ -4.2
G71A C95U C132U | -4.11
G71A C96A | -3.18
G71A C96G | -3.31
G71A C96U G143A | ≤ -4.2

Variant | polymerase ribozyme fitness (log ratio)
G71A G74A A91C C108A G136C | ≤ -4.2
G71A G88A | ≤ -4.2
G71A G136U | ≤ -4.2
G71A U77A G81C A89C U101G C114U | ≤ -4.2
G71A U82A G83C A110C U134G | ≤ -4.2
G71A U82G A110G | ≤ -4.2
G71A U135C | ≤ -4.2
G71A U144A A147C | ≤ -4.2
G71C A73C C108U U146C C149G | ≤ -4.2
G71C A91C U102C C108G A120G A137C U151G | ≤ -4.2
G71C A91U G136C | ≤ -4.2
G71C A137G | ≤ -4.2
G71C C79A C114A | ≤ -4.2
G71C C79U G83A C95A C99A | ≤ -4.2
G71C C85A A137U | ≤ -4.2
G71C C85A C99G C116U U127C | ≤ -4.2
G71C C87A C96A C99U | ≤ -4.2
G71C C87G A91C C114G C129G G152U | ≤ -4.2
G71C C87G G141A | ≤ -4.2
G71C C95A | ≤ -4.2
G71C C95U C96U C125A | ≤ -4.2
G71C C95U U135A | ≤ -4.2
G71C C116U | -2.51
G71C C118G G141C | ≤ -4.2

Variant | polymerase ribozyme fitness (log ratio)
G71C G84A A119U | -2.68
G71C G84A C118A C129A G136U G141A | ≤ -4.2
G71C G92C | ≤ -4.2
G71C G92C G143U U144G | ≤ -4.2
G71C U77A U90C C103A U104G C131G | ≤ -4.2
G71C U109C A115G | ≤ -4.2
G71U A73U A97G U145G | ≤ -4.2
G71U A89U C95A | -3.94
G71U A91U A122G G143U U145C | ≤ -4.2
G71U A97U C103G A142U | ≤ -4.2
G71U A120G U146C | -2.36
G71U C85U C93A | ≤ -4.2
G71U C93U U104G C149A | ≤ -4.2
G71U C118A C123G C132U | ≤ -4.2
G71U G80C C95U U127A | -3.97
G71U G83C U146G | ≤ -4.2
G71U G84A A106U C118A G152A | ≤ -4.2
G71U G86U C125A A138G | -3.99
G71U G94A A119G U139C A147C | ≤ -4.2
G71U G94C A110G | ≤ -4.2
G71U G133A C149U | ≤ -4.2
G71U U90A C125U | ≤ -4.2
C72A A73U C85G A138C U148C | ≤ -4.2
C72A A91U U145A | ≤ -4.2

Variant | polymerase ribozyme fitness (log ratio)
C72A A97U | ≤ -4.2
C72A C75U C85U C99U | ≤ -4.2
C72A C85G C87G C99U G141U | ≤ -4.2
C72A C93G C95G | ≤ -4.2
C72A C103G G124A | ≤ -4.2
C72A C125U G136U | ≤ -4.2
C72A G81C G86U G141C | ≤ -4.2
C72A G83A A150G | ≤ -4.2
C72A G83A C93U | ≤ -4.2
C72A G84U U101A G133A | ≤ -4.2
C72A G86U A91G C96U C103U C116G G133U G143C | ≤ -4.2
C72A U134A | ≤ -4.2
C72G | -3.79
C72G A147U | -3.16
C72G C93A C108U C114G | ≤ -4.2
C72G C99U U101G A142U | ≤ -4.2
C72G C114G G124U | ≤ -4.2
C72G C116U A121U | ≤ -4.2
C72G G83U C99G A107C G136C U146A | ≤ -4.2
C72G G86U | ≤ -4.2
C72G G86U G140A | ≤ -4.2
C72G U77A G83A C103A U139G | ≤ -4.2
C72G U82A U101G A107U A121C | ≤ -4.2
